Hit rate of the full screen: of about 91,000 compounds, about 130 (0.14%) were called active. The shares of active, inactive and inconclusive entries below differ from those in the screen. The call rests on the fitted dose curve; in most records, active means well fitted inhibition curve with a large enough effect; inconclusive means small, poorly fitted or top-dose-only effect; inactive means flat fitted curve, though single readings scatter. Potencies beside an inconclusive call are fits to weak or partial responses and may not hold up.
These compounds were tested on Uracil-DNA glycosylase (assay: Primary qHTS assay for inhibitors of Activation Induced Cytidine Deaminase (AID): UDG Counterscreen signal). Conditions: FRET deamination/UDG coupled assay, UDG read, 4 h; activity change, negative = inhibition: at 115 µM (top of the series).
Text: Assay Provider (PI) Patricia Gearhart Ph.D.
National Institute on Aging
National Institute of Health (NIH), Bethesda, MD
Assay Provider (PI) Rahul Kohli Ph.D.
Perelman School of Medicine
University of Pennsylvania, Philadelphia, PA
Activation-Induced Deaminase (AID) is a cytosine deaminase which converts cytosine into uracil within stretches of ssDNA. The presence of uracil in DNA initiates a cascade of mutagenic DNA repair to introduce point mutations and DNA double strand breaks. Specific targeting of AID to the immunoglobulin heavy chain loci (Igh) promotes mutagenesis in the antibody variable region for somatic hypermutation (SHM) or switch regions leading to class switch recombination (CSR). However, AID also plays a role in accumulating unnecessary mutations across the genome. Mis-targeting of AID results in the initiation of tumor development and leads to greater drug resistance among cancer cells when continually expressed. To identify an AID inhibitor, a small molecule library will be screened in collaboration with NCATS core facility at NIH. To confirm biological function, inhibitors will be examined in an in vitro murine B-cell activation assay and subsequent secondary validation screens. Top molecules will be further screened to identify inhibitory efficacy against a wild type primary splenocytes assay. Using these approaches, we hope to identify a small molecule with great efficacy and low toxicity for use as a molecular probe to further characterize AID's intricacies, or even as a therapeutic.
A FRET based analysis of cytosine deamination, was developed to identify potential inhibitors of AID catalytic activity. This screen has two signal output, Read 1 evaluates the AID inhibition response. The second readout (Read 2) evaluates UDG response and is uses as a counterscreen to exclude false positive inhibitors. Inhibition in AID and inactivity in the UDG signal is the desired outcome for this assay.
SEQUENCE No. (e.g., 1, 2, 3, etc.); […] (e.g., Cells, Incubation, Reagent, etc.); VALUE; DESCRIPTION
1a; Reagent; 3 uL; [4/3x] 1 uM AID/2.67 U/mL UDG
1b; Reagent; 3 uL; 2 U/mL UDG
1c; Reagent; 3 uL; 1 uM AID
2a; Compound; 46 nL; Follow-up plates (0.64 uM - 10 mM)
2b; Control; 46 nL; ATA ([…] - 10 mM)
3; Time; 10 min; incubation at room temperature
5; Time; 4 hr; incubation at room temperature
6; Reagent; 4 uL; [2x] 250 mM NaOH
7; Time; 15 sec; centrifuge at 1000 rpm
8; Time; 30 min; incubation at room temperature
9a; Detection; fluorescence (Read 1: AID); EnVision (PerkinElmer) plate reader, 540 excitation and 590 emission filters
9b; Detection; fluorescence (Read 2: UDG); EnVision (PerkinElmer) plate reader, 560 excitation and 665 emission filters
NOTES (numbers refer to sequence above)
1a; Reagents were dispensed in a medium-binding black solid-bottom Greiner plates (789176F) using a BioRptr liquid dispenser. Dispense 3 uL of [4/3x] 1 uM AID (provided by Kohli lab) and [4/3x] 2 U/mL UDG (NEB M0280L) into columns 1, 2, 5 to 48.
1b; Dispense 3 uL of [4/3x] 2 U/mL UDG into column 3.
1c; Dispense 3 uL of [4/3x] 1 uM AID into column 4.
2a; Compound (7-points [uM] (0.64; 3.2; 16; 80; 400; 2,000; 10,000; 20,000) double pin-transferred (Dip Factor = 2) using the Kalypsys (Wako USA) pintool equipped with a 1536 pinhead for a final concentration range of 7.32 nM - 114 uM.
2b; 10 mM Aurintricarboxylic Acid (Sigma A1895) (ATA, 8-point, n = 2, 1:2.5 dilution in column 2) double pin-transferred (Dip Factor = 2) using the Kalypsys (Wako USA) pintool equipped with a 1536 pinhead for a [final] range of 186 nM - 114 uM.
3; Room temperature incubation.
4; Dispense 1 uL of substrate mixture from the Kohli lab [4x] […] DJC20 and [4x] 250 nM DJC23 into columns 1 to 48 .
5; Room temperature incubation.
6; Dispense 4 uL of substrate mixture [2x] 250 mM NaOH into columns 1 to 48.
7; Centrifugation step to remove bubbles.
8; Room temperature incubation
9a; Fluorescence signal (column label AID) was read using the EnVision plate reader. […]
Further: nearly all actives have a fitted effect of over 65% in size.
On the % scale 0 is the no-effect control and ±100 the full control effect; potency means the concentration at half of the fitted maximal effect; tags describe the fitted curve by direction and shape.

Q: How did the Potency turn out when `Clc1ccc(CNc2nc3ccccc3c3nc(-c4cccnc4)nn23)cc1` was run?
A: Its Potency is inconclusive: 89.1 µM [inhibitor, single point].

Q: For `CCNC(=O)c1cnc2sc(N3CCC(C)CC3)nn2c1=O`, which Potency is on record?
A: Its Potency is inconclusive: 100 µM [inhibitor, partial curve, poor fit].

Q: Which Potency does the source give for `O=C(Nc1cccc(Cl)c1)c1ccc2nc(Cc3ccccc3)oc2c1` here?
A: The Potency was inconclusive: 31.6 µM [inhibitor, partial curve, poor fit].

Q: With `Cc1ccccc1OCC(=O)Nc1ccccc1C(=O)OCc1cc(=O)n2c(C)csc2n1` as the compound, how does the “activity change, negative = inhibition” value read?
A: Its value is inactive: 2.59%.

Q: `CCOc1ccc(Nc2nc(-c3ccccc3)c(C(=O)Nc3cccnc3)s2)cc1` was tested. Which “activity change, negative = inhibition” value did it give?
A: The value was inactive: -5.41%.

Q: How did the Potency turn out when `CCc1cc(=O)oc2c(C)c(OCc3ccccc3)ccc12` was run?
A: Its Potency is inconclusive: 89.1 µM [inhibitor, single point].

Q: With `Cc1ccccc1Cn1c(Oc2ccccc2F)nc2c1c(=O)n(C)c(=O)n2C` as the compound, how does the Potency read?
A: The Potency was inconclusive: 31.6 µM [inhibitor, single point].

Q: For `Cc1cccc(-c2cc(NC(=O)C(C)(C)C)n(-c3ccccc3)n2)c1`, which Potency is on record?
A: The Potency was inconclusive: 100 µM [inhibitor, single point].

Q: With `Cc1cccc(C)c1N1CC(c2nc3ccccc3n2CC(=O)OC(C)C)CC1=O` (centres undefined) as the compound, how does the “activity change, negative = inhibition” value read?
A: Its value is inactive: -22.3%.

Q: `CCCc1nc2ccccc2n2c(-c3cccc(C)c3)c3c(=O)n(C)c(=O)n(C)c3c12` was tested. Which Potency did it give?
A: Its Potency is inconclusive: 3.16 µM [inhibitor, partial curve, poor fit].

Q: How did the “activity change, negative = inhibition” value turn out when `Cc1ccc(SCc2ccc(C(=O)Nc3cc(C)ccc3C)cc2)cc1` was run?
A: Its value is inactive: -14.7%.

Q: `Cc1nn(C(C)(C)C)c(OC(=O)C(C)(C)C)c1Sc1ccccc1` was tested. Which Potency did it give?
A: Its Potency is inconclusive: 100 µM [inhibitor, single point].

Q: For `Cn1cc(C(=O)N2CCN(c3cccc(C(F)(F)F)c3)CC2)c2c3ccccc3n(C)c2c1=O`, which Potency is on record?
A: The Potency was active: 79.4 µM.

Q: Which Potency does the source give for `CCOc1ccc(NC(=O)CN(c2ccc(Cl)cc2C)S(=O)(=O)c2ccccc2)cc1` here?
A: Its Potency is active: 89.1 µM.

Q: Which Potency does the source give for `COc1ccc(NC(=O)CN(c2ccc(C)cc2)S(=O)(=O)c2cccc3nonc23)cc1OC` here?
A: The Potency was inconclusive: 31.6 µM [inhibitor, partial curve, poor fit].

Q: How did the Potency turn out when `Nc1ccc2c(S(=O)(=O)O)cc(S(=O)(=O)O)cc2c1` was run?
A: Its Potency is inconclusive: 35.5 µM [inhibitor, partial curve, poor fit].

Q: How did the Potency turn out when `CCOc1ccc(NC(=O)c2cnc(N3CCCCC3)c3ccccc23)cc1` was run?
A: The Potency was inconclusive: 89.1 µM [inhibitor, partial curve, poor fit].

Q: For `CN(c1ccccc1)S(=O)(=O)c1nnc(NC(=O)c2ccccc2)s1`, which “activity change, negative = inhibition” value is on record?
A: Its value is inactive: 0.999%.

Q: With `Cc1cccc(NC(=S)NNC(=O)C(c2ccccc2)c2ccccc2)c1C` as the compound, how does the “activity change, negative = inhibition” value read?
A: Its value is inactive: -10.4%.

Q: Which Potency does the source give for `COCCCNc1nc2cc(OC)c(OC)cc2c2nc(-c3ccccc3)nn12` here?
A: The Potency was inconclusive: 100 µM [inhibitor, single point].

Q: How did the Potency turn out when `N#Cc1ccccc1OCc1csc(-c2ccccc2)n1` was run?
A: The Potency was active: 89.1 µM.

Q: With `COc1ccc2c(C)c(CC(=O)NCc3ccc(C)cc3)c(=O)oc2c1OC` as the compound, how does the Potency read?
A: The Potency was inconclusive: 100 µM [inhibitor, single point].

Q: With `CC(OC(=O)c1csc(NCc2ccccc2)n1)C(=O)N(C)Cc1ccccc1` (centres undefined) as the compound, how does the “activity change, negative = inhibition” value read?
A: The value was inactive: -0.898%.

Q: With `CCOC(=O)c1sc2cccc(F)c2c1S(=O)(=O)N1CCN(c2cccc(Cl)c2)CC1` as the compound, how does the Potency read?
A: Its Potency is inconclusive: 89.1 µM [inhibitor, single point].

Q: How did the Potency turn out when `COc1ccc(Nc2ncc3c(n2)CCN(Cc2cc(Br)cs2)C3)c(OC)c1` was run?
A: The Potency was active: 89.1 µM.

Q: How did the Potency turn out when `Cc1ccc2[nH]cc(CCNC(=O)/C=C/c3ccccc3F)c2c1` was run?
A: Its Potency is inconclusive: 89.1 µM [inhibitor, single point].

Q: Which Potency does the source give for `COc1ccc(C2CC(c3c(O)n(C4CCCCC4)c(=O)[nH]c3=O)=Nc3ccccc3S2)cc1` (centres undefined) here?
A: The Potency was inconclusive: 50.1 µM [inhibitor, partial curve, poor fit].

Q: For `COc1ccc(C)cc1NC(=O)c1cc(S(=O)(=O)NC2CCCCCC2)ccc1F`, which Potency is on record?
A: Its Potency is inconclusive: 100 µM [inhibitor, partial curve, poor fit].

Q: For `CC(=O)c1ccc(NC(=O)c2ccccc2SC(C)C)cc1`, which “activity change, negative = inhibition” value is on record?
A: Its value is inactive: 3.33%.

Q: For `COc1ccc(-c2cnnn2-c2ccc(NC(=O)c3c(F)cccc3F)cc2)cc1`, which Potency is on record?
A: The Potency was inconclusive: 89.1 µM [inhibitor, single point].

Q: For `CCCOc1ccc(-c2nn(-c3ccccc3)cc2C2NC(=O)NC(C)=C2C(=O)OC(C)C)cc1` (centres undefined), which Potency is on record?
A: Its Potency is inconclusive: 89.1 µM [inhibitor, single point].

Q: With `CCCS(=O)(=O)Nc1cc(-c2cn3cccc(C)c3n2)ccc1C` as the compound, how does the Potency read?
A: The Potency was inconclusive: 89.1 µM [inhibitor, single point].

Q: How did the Potency turn out when `Cc1nc(-c2ccccc2)sc1-c1ccc(SCC(=O)NCc2ccc(F)cc2)nn1` was run?
A: Its Potency is inconclusive: 89.1 µM [inhibitor, single point].

Q: `CCOc1ccc(-n2c(SCC(=O)N3CCCC3)nc3c([nH]c4ccccc43)c2=O)cc1` was tested. Which “activity change, negative = inhibition” value did it give?
A: Its value is inactive: -5.08%.

— PubChem BioAssay AID1347430 (National Center for Advancing Translational Sciences (NCATS), 2020)
